We go through 39 variants from the RNAGym collection of RNA variant scans (doi:10.7554/elife.90254).

Read counts are not given, so values of variants with three or more changes are uncertain.

The labels stand for the following.
B1: LINE1-full (parent)
chain: UACGUAGGUGGUUUUCCCCUGAUAGUGCUAAGGGGGCCUGGAAGUUUGGACUGGGCAGAGCUCAACACAGCGUGGCAAAGUGGCUGUGGCUAGACUGCCUCUCUGGAUUCCUCGUCACUCAGCAGGGCAUCUCUGAGAGAAAUGCC

The variants in the data set derive from B1. Nature of the data set: self-cleavage, relative activity (ratio to wild type); higher = more cleavage; in vitro, sequencing; the parent is a self-cleaving ribozyme.
Regarding UACGUAGGUGGUUUUCCCCUGAUAGUGCUAAGGGGGCCUGGAAGUUUGGACCGGGCAGAGCUCAACACAGCGUGGCAAAGUGGCUGCGGCUAGACUGCCUCUCUGGAUUCCUCGUCACUCAGCAGGGCAUCUCUGAGAGGAAUGCC [U52C U87C A140G], the self-cleavage is 0.11.
The figure for UACGUAGGUGGUUUUCCCCUGAUAGUGCUAAGGGGGCCUGGAAGUUUGGACCGGGCAGAGCUCAACACAGCGUGGCAAAGUGGCUGUGGCUAGACUGCCUCUCUGGAUUCCUCGUCACCCAGCAGGGCAUCUCUGGGAGAAAUGCC [U52C U119C A136G] is 1.84; for UACGUAGGUGGUUUUCCCCUGAUAGUGCUAAGGGGGCCUGGAAGUUUGGACUAGGCAGAGCUCAACGCCGCGUGGCAAAGUGGCUGUGGCUAGACUGCCUCUCUGGAUUCCUCGUCACUCAGCAGGGCAUCUCUGAGAGAAAUGCC [G53A A67G A69C] it is 0; for UACGUAGGUGGUUUUCCCCUGAUAGUGCUAAGGGGGCCUGGAAGUUUGGACUAGGCAGAGCUCAACACAGCGUGGCAAAGUGGCUGUGGCUCGACUGCCUCUCUGAAUUCCUCGUCACUCAGCAGGGCAUCUCUGAGAGAAAUGCC [G53A A92C G106A] it is 0.14.
For UACGUAGGUGGUUUUCCCCUGAUAGUGCUAAGGGGGCCUGGAAGUUUGGACCGGGCAGAGCUCAACACAGCGUGGCAAAGUGGCUGUGGCUAGACCGACUCUCUGGAUUCCUCGUCACUCAGCAGGGCAUCUCUGAGAGUAAUGCC [U52C U96C C98A A140U] the value was 0.06; for UACGUAGGUGGUUUUCCCCUGAUAGUGCUAAGGGGGCCUGGAAGUUUGGACUUGGCAGAGCUCAGCACAGCGUGGCAAAGUGGCUGUGGCUAGACUGCCUCUUUGGAUUCCUCGUCACUCAGCAGGGCAUCUCUGAGAGAAAUGCC [G53U A65G C103U], 0.05.
The figure for UACGUAGGUGGUUUUCCCCUGAUAGUGCUAAGGGGGCCUGGAAGUUUGGACUAGGCAGGGCUCAUCACAGCGUGGCAAAGUGGCCGUGGCUAGACUGCCUCUCUGGAUUCCUCGUCACUCAGCAGGGCAUCUCUGAGAGAAAUGCC [G53A A59G A65U U85C] is 0.04; for UACGUAGGUGGUUUUCCCCUGAUAGUGCUAAGGGGGCCUGGAAGUUUGGACUAGGCAGAGCUCAACACAGCGUGGCAAAGUGGCCGCGGCUAGACUGCCUCUCUGGAUUCCCCGUCACUCAGCAUGGCAUCUCUGAGAGAAAUGCC [G53A U85C U87C U112C G125U] it is 0.07; for UACGUAGGUGGUUUUCCCCUGAUAGUGCUAAGGGGGCCUGGAAGUUUGGACCGGGCAGAGCUCAACACAGCGUGGCAAAGUGGCUGUGGCUAGACUGCCUCUCUGGAUUCCUCGUCACCCAGCUGGGCAUCUCUGAGAGAAAUGCC [U52C U119C A124U] it is 0.
On to UACGUAGGUGGUUUUCCCCUGAUAGUGCUAAGGGGGCCUGGAAGUUUGGACGGGGCAGAGCUCAGCACAGCGUGGCAAAGUGGCUGUGGCUAGACCGCCUCUCUGGAUUCCUCGUCACUCAGCAGGGCAUCUCUGAGAGAAAUGCC [U52G A65G U96C], for which the self-cleavage was 0.
The figure for UACGUAGGUGGUUUUCCCCUGAUAGUGCUAAGGGGGCCUGGAAGUUUGGACUAGGCAGAGCUCAACACGGCGUGGCAAAGUGGCUGUGGCAAGACUGCCUCUCUGGAUUCCUCGUCACUCAGCAGAGCAUCUCUGAGAGAAGUGCC [G53A A69G U91A G126A A142G] is 0.25; for UACGUAGGUGGUUUUCCCCUGAUAGUGCUAAGGGGGCCUGGAAGUUUGGACUAGGCAGAGCUCGACACAGCGAGGCAAAGUGGCUGUGGCUAGACUGCCUCUCUGGAUUCCUCGUCACUCAGCAGGGCAUCUCUGAGAGAAGUGCC [G53A A64G U73A A142G] it is 0.27; for UACGUAGGUGGUUUUCCCCUGAUAGUGCUAAGGGGGCCUGGAAGUUUGGACCGGGCAGAGCUCAACACAGCGUGGCAAAGUGGCUGUGGCUAGACUGCCUCUCUGGAUUCCCCGUCACUCAGCUGGGCAUCUCUGAGAGAGAUGCC [U52C U112C A124U A141G] it is 1.31.
As to UACGUAGGUGGUUUUCCCCUGAUAGUGCUAAGGGGGCCUGGAAGUUUGGACCGGGCAGAGCUCAACACAGCGUGGCAAAGUGGCUGUGGCUAGACUGCCUCUCCGGGUUCCUCGUCACUCAGCAGGGCAUCUCUGAGAGAAAUGCC [U52C U104C A107G], the self-cleavage is 0.
For UACGUAGGUGGUUUUCCCCUGAUAGUGCUAAGGGGGCCUGGAAGUUUGGACUAGGCAGAGCUCAACACAGCGUGGCAAAGUGGCUGUGGCUAGACUGCCUCUCGGGACUCCUCGUCACUCAGCAGGGCAUCUCUGAGAGAAAUGCC [G53A U104G U108C] the value was 2.07; for UACGUAGGUGGUUUUCCCCUGAUAGUGCUAAGGGGGCCUGGAAGUUUGGACCGGGCAGAGCUCAACACAGCGUGGCAAAGUGGCUGUGGCUAGACUGCCACUCUGGAUUCCUCGUCACUCAGCGGGGCAUCUCUGAGAGAAAUGCC [U52C U100A A124G], 0.51.
Turning to UACGUAGGUGGUUUUCCCCUGAUAGUGCUAAGGGGGCCUGGAAGUUUGGACGGGGCAGAGCACAACACAGCGUGGCAAAGUGGCUGUGGCUAGACUGCCUCUCUAGAUUCCUCGUCACUCAGCAGGGCAUCUCUGAGAGAAAUGCC [U52G U62A G105A], the self-cleavage came out at 0.03.
For UACGUAGGUGGUUUUCCCCUGAUAGUGCUAAGGGGGCCUGGAAGUUUGGACUCGGCAGAGCUCAACACAGCGUGGCAAAGUGGCUGUGGCUAGACUGCCUCUCUGGAUUCCUCAUCACUCAGCAGGGCAUCUCCGAGAGAGAUGCC [G53C G114A U134C A141G] the value was 1.73.
Consider UACGUAGGUGGUUUUCCCCUGAUAGUGCUAAGGGGGCCUGGAAGUUUGGACUAGGCAGAGCUCAACACAGCGUGGCAAAGUGGCAGUGGCUAGACUGCCUCUCUGGAUUCCUCGUCACUCAGCAGGGCAUCUCCGAGAGGAACGCC [G53A U85A U134C A140G U143C], for which the self-cleavage was determined as 0.01.
Consider UACGUAGGUGGUUUUCCCCUGAUAGUGCUAAGGGGGCCUGGAAGUUUGGACUAGGCAGAGCUCAACACAGCGUGGUAAAGUGGCUGUGGCUAGACUGCCUCUCUGGAUUCCUCGUCACUCAGCAGGGCGUCUCUGAGAGAAAUGCC [G53A C76U A129G], for which the self-cleavage turned out to be 2.36.
For UACGUAGGUGGUUUUCCCCUGAUAGUGCUAAGGGGGCCUGGAAGUUUGGACCGGGCAGAGCUCAACACAGCGUGGCAAAGUGGCUGCGGCUAGACUGCCUCUCUGGAUUCCUCGUCACUCAGCAGGGCACCUCUGAGAGAAAUGCC [U52C U87C U130C] the value was 0; for UACGUAGGUGGUUUUCCCCUGAUAGUGCUAAGGGGGCCUGGAAGUUUGGACUAGGCAGAGCUAAACACAGCGUGGCAAAGUGGCUGUGGCUAGACUGCCUCUCUGGAUUCCUCGUCACUCAGCAGGGCAUCUCUGAGAGGAAUGCC [G53A C63A A140G], 0.05; for UACGUAGGUGGUUUUCCCCUGAUAGUGCUAAGGGGGCCUGGAAGUUUGGACCGGGCAGAGCUCAACACAGCGUGGCAAAGUGGCUGUGGCUAGACUGCCUCUCUGGAUUCCUCGUCACACAGCAGGGCAUCUCUGUGAGAAAUGCC [U52C U119A A136U], 1.71.
For the variant UACGUAGGUGGUUUUCCCCUGAUAGUGCUAAGGGGGCCUGGAAGUUUGGACUAGGCAGAGCUCAACACAGCGUGGCAAAGUGGCUGUGGCUAGACCGCCUCUCUGGAUUCCUCGUCACUCCGCAGGGCAUCUCUGAGAGAAAUGCC [G53A U96C A121C], the self-cleavage was 0.04.
Regarding UACGUAGGUGGUUUUCCCCUGAUAGUGCUAAGGGGGCCUGGAAGUUUGGACGGGGCAGAGCUCAACACAGCGUGACAAAGUGGCUGUGGCUAGACUGCCUCUCCGGAUUCCUCGUCACUCAGCAGGGCAUCCCUGAGAGAAAUGCC [U52G G75A U104C U132C], the self-cleavage was 1.58.
With UACGUAGGUGGUUUUCCCCUGAUAGUGCUAAGGGGGCCUGGAAGUUUGGACUUGGCAGAGCUCAACACAGCGUGGCAAAGUGGCUGUGACUAGACUGCCUCCCUGGAUUCCUCGUCACUCAGCAGGGCAUCUCUGAGAGAAAUGCC [G53U G89A U102C], the self-cleavage came to 0.05.
The figure for UACGUAGGUGGUUUUCCCCUGAUAGUGCUAAGGGGGCCUGGAAGUUUGGACGGGGCAGAGCUCAACACAGCGUGGCAAAGUGGCUGUGGCUAGACUGCCUCUCCGGAUUCCUCGUCACUCAGCAGGGCAUCCCUGAGAGGGAUGCC [U52G U104C U132C A140G A141G] is 1.41.
For the variant UACGUAGGUGGUUUUCCCCUGAUAGUGCUAAGGGGGCCUGGAAGUUUGGACGGGGCAGAGCUCAACACAGCGUGGCAAAGUGGCUGUGGCUAGACUGCCUCUCUGGAUUCCUCGUCAUUCAGCAGGGCAUCUCUGAGAGAAGUGCC [U52G C118U A142G], the self-cleavage amounted to 1.04.
With UACGUAGGUGGUUUUCCCCUGAUAGUGCUAAGGGGGCCUGGAAGUUUGGACUAGGCAGAGCUCAACACAGCGUGGCAAAGUGGCUGUGGCUAGACUGCCUCUCUGGAUUCCUCGUCACUCAGCAGGGCGUCUCUGAGAGAAAUACC [G53A A129G G144A], the self-cleavage amounted to 1.27.
The figure for UACGUAGGUGGUUUUCCCCUGAUAGUGCUAAGGGGGCCUGGAAGUUUGGACCGGGCAGAGCUCAACACAGCGUGGCAAAGUGGCUGCGGCUAGACUACCUCUCUGGAUUCCUCGUCACUCAGCAGGGCAUCUCUGAGAGAAAUGCC [U52C U87C G97A] is 0.08; for UACGUAGGUGGUUUUCCCCUGAUAGUGCUAAGGGGGCCUGGAAGUUUGGACGGGGCGGAGCUCAACACAGCGUGUCAAAGUGGCUGUGGCUGGACUGCCUCUCUGGAUUCCUCGUCACUCAGCAGGGCAUCUCUGAGAGGAAUGCC [U52G A57G G75U A92G A140G] it is 0.2.
UACGUAGGUGGUUUUCCCCUGAUAGUGCUAAGGGGGCCUGGAAGUUUGGACUAGGCAGAGCUCAACACAGCGAGGCAAAGUGGCCGUGGCUAGACUGCCUCUCUGGAUUCCUCGUCACUCAGCAGGGCAUCUCUGAGAGAAAUGCC [G53A U73A U85C]: the self-cleavage came to 0.07.
The figure for UACGUAGGUGGUUUUCCCCUGAUAGUGCUAAGGGGGCCUGGAAGUUUGGACGGGGCAGAGCUCAACACAGCGUGGCAAAGUGGCUGUGGCUAGACAGCCUCUCUGGAUUCCUCGUCACUCAGCAGGGCAUCUCUGAGAGGAAUGCC [U52G U96A A140G] is 0.02; for UACGUAGGUGGUUUUCCCCUGAUAGUGCUAAGGGGGCCUGGAAGUUUGGACUAGGCAGAGCUCAACACGGCGUGGCAAAGUGGCUGUGGCUAGACUGCCUCUCUGGAUUCCUCGUCACUCAGCAGGGCACCUCUGAGAGGAAUGCC [G53A A69G U130C A140G] it is 0.23; for UACGUAGGUGGUUUUCCCCUGAUAGUGCUAAGGGGGCCUGGAAGUUUGGACCGGGCAGAGCUCAACACAGCGUGGCAAAGUGGCUGUGGCUAGACUGCCUCUCUGGAUUCCUCGUCACUCAGCAGGGCAUCCCUGGGAGAAAUGCC [U52C U132C A136G] it is 0.
UACGUAGGUGGUUUUCCCCUGAUAGUGCUAAGGGGGCCUGGAAGUUUGGACUAGGCAGAGCUCAACACAGCGUGGCAAAGUGGCUGUGGCUAGACUGCCUCUCUGGAUUCCUCGCCAUUCAGCAGGGCAUCUCUGAGAGAAAUGCC [G53A U115C C118U]: the self-cleavage was found to be 1.07.
The figure for UACGUAGGUGGUUUUCCCCUGAUAGUGCUAAGGGGGCCUGGAAGUUUGGACUAGGCAGAGCUCAACACAGCGUGGCAAAGUGGCUGUGGCUAGACUGCCACUCUGGAUUCCUCGCCACUCAGCAGGGCAUCUCUGAGAGAAAUGCC [G53A U100A U115C] is 0.98.
Take UACGUAGGUGGUUUUCCCCUGAUAGUGCUAAGGGGGCCUGGAAGUUUGGACUAGGCAGAGCUCAACACAGCGUGGCAGAGUGGCUGCGGCUAGACUGCCUCUCUGGAUUCCUAGUCACUCAGCAGGGCAUCUCUGAGGGAAAUGCC [G53A A78G U87C C113A A138G]: the self-cleavage amounted to 0.04.
Take UACGUAGGUGGUUUUCCCCUGAUAGUGCUAAGGGGGCCUGGAAGUUUGGACUUGGCAGAGCUCAACACAGCGUGGCGAAGCGGCUGUGGCUAGACUGCCUCUCUGGAUUCCUCGACACUCAGCAGGGCAUCUCUGAGAGAAAUGCC [G53U A77G U81C U115A]: the self-cleavage came out at 1.69.
